# In all, about 33,000 sequences were measured (“E-score (-0.5 to 0.5)”: median about -0.016, highest 2% from about 0.32 on). This is one part of the list.
# Target: T1, Stp1 (UniProt B3LFK1)
# T1 sequence: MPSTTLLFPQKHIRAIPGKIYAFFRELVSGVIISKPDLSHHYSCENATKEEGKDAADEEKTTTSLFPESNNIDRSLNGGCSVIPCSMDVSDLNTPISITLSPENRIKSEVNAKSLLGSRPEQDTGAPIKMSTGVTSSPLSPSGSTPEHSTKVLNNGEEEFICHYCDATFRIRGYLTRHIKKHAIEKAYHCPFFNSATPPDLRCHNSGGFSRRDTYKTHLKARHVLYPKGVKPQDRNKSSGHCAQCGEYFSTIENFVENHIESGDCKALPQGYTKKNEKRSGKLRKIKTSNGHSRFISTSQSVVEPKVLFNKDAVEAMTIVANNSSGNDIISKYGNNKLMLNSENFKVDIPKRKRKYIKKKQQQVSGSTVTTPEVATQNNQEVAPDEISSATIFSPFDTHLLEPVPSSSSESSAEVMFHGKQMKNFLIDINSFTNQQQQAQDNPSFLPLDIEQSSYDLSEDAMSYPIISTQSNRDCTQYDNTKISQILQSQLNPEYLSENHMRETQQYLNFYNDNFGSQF
# Experiment: PBM E-score (8-mer binding enrichment) (E-score (-0.5 to 0.5)); higher = stronger / more preferred TF binding; most listed sequences are background and not binding sites
# Conditions: protein concentration: 200 nM; construct: GST-full length
# Summary of the method: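 For each ungapped eight-base word taken together with its reverse complement, the Universal PBM Analysis Suite assigned an E-score. Binding data came from GST-tagged yeast transcription factors, applied at about 100-200 nM, on universal all-10-mer Agilent arrays made double-stranded by primer extension. Fluorescent anti-GST marked bound protein, and scans were normalised with masliner.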
row,Sequence,PBM E-score
1,TACTACAA,0.161
2,CATACTCG,-0.0635
3,AGACAGCA,-0.0751
4,ACCGAAAG,-0.0529
5,AAAAAAGA,0.0563
6,ACGTGATA,0.0417
7,AATTAGCA,0.12
8,TCACCGAA,-0.0434
9,CTACTCGA,0.0184
10,GGGTGAAA,-0.139
11,AGATTAAG,-0.0157
12,AGGGTAGC,-0.243
13,GGTGTCTA,0.0155
14,TGGCGCAA,0.298
15,GCCGTGAA,0.361
16,ATTAACTC,0.189
17,AGAGCACC,-0.0875
18,AGTCGACG,0.131
19,AGCGAGTG,0.0906
20,AATGAAAG,0.00618
21,AAGAGTCA,-0.224
22,ATAACACC,0.0275
23,GTGTGCTA,0.0152
24,TCAATACA,0.0645
25,GAGCGAAC,-0.183

row,Sequence,PBM E-score
1,CGGTATGA,0.0359
2,GAGCGTCA,-0.0209
3,ATATCTCG,-0.016
4,CATGCGTC,-0.114
5,AGCCGAGC,0.108
6,ATAAGCAG,-0.0682
7,ACCCGGGC,-0.154
8,ACTATACC,-0.017
9,CGTACGGA,0.302
10,CCTAGAGG,-0.208
11,AAGTTACT,0.0281
12,GTTGACCA,0.0886
13,CACCCCGA,-0.148
14,AACGGGAC,-0.0599
15,TGTTCTAA,0.0932
16,GCACGTCC,0.135
17,CGCGCGCA,0.272
18,ATCCTCGC,-0.136
19,GCGGAAGC,-0.0335
20,GCAATGAA,0.256
21,GTGATAGA,-0.0664
22,AATAAGGA,0.0737
23,ATTTAAAG,0.244
24,AGTTGGCA,0.0438
25,ACTTCACT,-0.126

row,Sequence,PBM E-score
1,GGCTTAGA,-0.0744
2,AACTCCAG,-0.162
3,CATTCCAC,0.0151
4,AACCATAG,-0.0596
5,GGCAAGCA,-0.0635
6,ACTGTGAC,-0.034
7,CTGCTCAA,-0.145
8,CCGCGATC,-0.00115
9,CTGGGACC,-0.375
10,AGCAAAAA,0.0129
11,ACACACGT,0.0897
12,TGGACTAA,-0.162
13,TAACACGA,0.179
14,AGTCCTAA,-0.0539
15,ATCCAAGG,0.00917
16,GGATGACA,-0.0998
17,CTTAGTTA,0.109
18,ACAGTCGG,-0.0418
19,AAGGTCAT,-0.252
20,AAAAAAGT,0.139
21,CTGTAACA,-0.293
22,CGGTGCCC,0.273
23,AATTGAGT,0.118
24,ATGGATTC,-0.0108
25,AACCCCGG,-0.314

row,Sequence,PBM E-score
1,ACCCCTGA,-0.212
2,ACTCTGTG,-0.0819
3,CCACATCA,-0.00698
4,TCACGGCA,0.401
5,CCGAGGCG,0.333
6,CAATGTCA,0.0949
7,ACTATCGG,0.0358
8,CTTCCGTA,0.163
9,ACGTAATC,-0.169
10,AGAGAAAA,0.184
11,GTATATAA,0.168
12,ATTGGACG,-0.153
13,AGTGACGG,-0.0247
14,ACTTTGCC,0.19
15,ACATATAT,0.136
16,ACGACGGC,0.132
17,CACTACGG,0.221
18,GTCAGTGA,-0.00107
19,TCCGATCA,-0.0427
20,AGCCAAGA,-0.0283
21,AGTGTTTA,0.0443
22,CAGCTGCC,0.119
23,ATTTCGGC,0.0486
24,CCCTTTGC,0.0587
25,GGATTGCC,0.0318

row,Sequence,PBM E-score
1,ATTTAAAT,0.282
2,ACACGAGC,-0.0595
3,ATGACTCG,-0.116
4,AGATAAAG,0.148
5,AACTTAGC,0.0585
6,ACAATCCA,0.121
7,CATTCGCG,0.125
8,CGACGGGC,0.111
9,CTAACGGC,0.313
10,CAATTCAA,0.101
11,ACCTTAAT,-0.0695
12,AATCGGGC,-0.112
13,CAAGCATG,-0.0249
14,CGGATTTA,0.124
15,CCAGCAAC,-0.0606
16,AGAGGCAT,0.242
17,AGACATAC,-0.142
18,GACAACTA,0.014
19,ATCGTAGC,0.0207
20,ACTCCGGC,0.0708
21,GATGCTAA,0.147
22,AAGCATAA,0.08
23,AATTTAGG,0.119
24,ACGGCGAC,0.467
25,AAAGAGAC,-0.114

row,Sequence,PBM E-score
1,ATGCATCG,-0.0532
2,GAATGTTA,0.152
3,AGCGTCCG,-0.155
4,AGTGTGAA,0.0344
5,GCGATCAA,-0.0307
6,GTCATGTA,-0.163
7,GCACCCAA,0.00321
8,ATGGGTTG,-0.0322
9,CTAAGCAG,-0.13
10,TCAATCCA,-0.0386
11,GATTGGCA,0.113
12,CGTAGGCC,0.00246
13,GCCCTCGA,-0.192
14,AGCGTATC,0.0498
15,ACGAGCCT,-0.0868
16,CTACCCTC,-0.276
17,ACCAGCAA,0.0546
18,AGCTAGAC,-0.00755
19,GGACTTAC,-0.147
20,TCCGAGGA,-0.044
21,CCCGTCTC,-0.187
22,CCGGTCCG,-0.235
23,ATGAGATA,0.0924
24,CCTCCTGA,-0.111
25,GAATGGCC,-0.00301

row,Sequence,PBM E-score
1,CTCCGGTC,-0.169
2,CATCGAGC,0.064
3,CAGTCGTC,-0.211
4,CATGTCGG,-0.112
5,CAGCGTAG,-0.0991
6,AAGGACCG,-0.117
7,AGCGTCTC,-0.216
8,GGCTCACA,0.00723
9,GACACGTA,-0.0652
10,GAGTATGC,-0.049
11,CCTCCGTA,-0.0433
12,AGTCCTAG,-0.221
13,CATTCAAG,-0.0179
14,CTACTTAA,-0.106
15,CGGAGCCC,-0.125
16,AGAAGACA,-0.0204
17,AGGAGAGC,-0.218
18,CTATAGCA,0.0532
19,AAGCGTTG,-0.0552
20,TATTTCCA,0.0062
21,AAAAATGG,0.139
22,TCCATACA,0.129

# From the supplement of paper PMC3334620
